Measurements: PubChem BioAssay AID504845 (National Center for Advancing Translational Sciences (NCATS), 2011)
Out of some 390,000 compounds screened, about 150 (0.038%) were called active. This list was built around the results that the source calls inconclusive (neither active nor inactive); the mix of calls is not that of the screen. Calls come from the whole dose curve; as a rule, active = well fitted inhibition curve with a large enough effect; inconclusive = small, poorly fitted or top-dose-only effect; inactive = no such curve, though single readings can be large or run the other way. Potencies beside an inconclusive call are fits to weak or partial responses and may not hold up.

target: Regulator of G-protein signaling 4 (Homo sapiens) (UniProt P49798); assay: Inhibitors of Regulator of G Protein Signaling (RGS) 4: qHTS; conditions: Transcreener GDP fluorescence polarization, RGS4-accelerated GTP hydrolysis; series mostly up to 114 µM; note: nearly all actives have a fitted effect of over 75% in size
Chain of UniProt P49798 (P49798 whole entry, looked up): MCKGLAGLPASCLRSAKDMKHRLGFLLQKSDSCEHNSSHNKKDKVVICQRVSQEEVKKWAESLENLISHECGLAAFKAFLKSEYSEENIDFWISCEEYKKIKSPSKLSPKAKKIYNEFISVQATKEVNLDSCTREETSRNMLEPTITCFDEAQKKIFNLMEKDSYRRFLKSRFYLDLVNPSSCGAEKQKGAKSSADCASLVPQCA
Procedure, shortened: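 MLSMR compounds (23 nl, pin-transferred) preincubated 10 min at room temperature with a 500nM (2x) first reagent, then RGS4 at 900nM (2x) plus Transcreener GDP mix added; fluorescence polarization (620/688 nm) read before and after 90 min at 30 °C.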
Potency is the fitted concentration of half-maximal effect; tags give direction and shape of the fitted curve.

SMILES | Potency
CCOC(=O)N1CCN(C(c2cccnc2)c2ccc3cccnc3c2O)CC1 (stereo not drawn) | inconclusive: 39.8 µM [inhibitor, partial curve, poor fit]
Oc1ccc(/C=C/c2cc(O)cc(O)c2)cc1 | inconclusive: 15 µM [inhibitor, partial curve, poor fit]
CC(=O)Cc1nsc(Nc2ccc(C)cc2)n1 | inconclusive: 50.1 µM [inhibitor, partial curve, poor fit]
CC(=O)Nc1ccc(S(=O)(=O)Oc2cccc(/C=C3\SC(N)=NC3=O)c2)cc1 | inconclusive: 35.5 µM [inhibitor, partial curve, poor fit]
OCC(O)COc1cccc2ccccc12 (stereo not drawn) | inconclusive: 0.119 µM [inhibitor, full curve, poor fit]
O=C(O)COc1ccccc1/C=C1\SC(=O)N(Cc2ccc(F)cc2)C1=O | inactive
COc1ccc2[nH]c(=O)c(CN(Cc3nnnn3Cc3ccco3)C3CCCCC3)cc2c1 | inconclusive: 39.8 µM [inhibitor, partial curve, poor fit]
O=C(NCc1nc(-c2ccc(C(F)(F)F)cc2)no1)c1cccs1 | inconclusive: 89.1 µM [inhibitor, single point]
CCN(CC)S(=O)(=O)c1ccc(N2CCOCC2)c(NC(=O)c2cc(C)cc(C)c2)c1 | inactive
C=CCOC1=CS(=O)(=O)N(Cc2ccc(Br)cc2)c2ccc(Br)cc21 | inconclusive: 79.4 µM [inhibitor, single point]
CC/C(=N/O)C(=O)c1ccc(Br)cc1 | inconclusive: 79.4 µM [inhibitor, partial curve, poor fit]
COC(=O)c1cccc(-n2[nH]nnc2=S)c1 | inconclusive: 56.2 µM [inhibitor, partial curve, poor fit]
CCOC(=O)c1c(C)[nH]c(C)c1C(=O)COC(=O)/C=C/c1ccc(OC)cc1 | inactive
Cc1cc(C)n2c(SCC(=O)Nc3ccc(F)cc3)nnc2n1 | inconclusive: 56.2 µM [inhibitor, partial curve, poor fit]
CCN(CC)c1ccc(S(=O)(=O)N2CCOCC2)cc1NC(=O)CSc1nncs1 | inconclusive: 89.1 µM [inhibitor, single point]
Cn1c(=O)c2c(nc(NCCCO)n2CCc2ccccc2)n(C)c1=O | inactive
CCC(=O)NC(=S)Nc1ccc(NC(=O)COc2ccc(Cl)c(C)c2)cc1 | inconclusive: 79.4 µM [inhibitor, partial curve, poor fit]
CCCOc1ccc(-c2nc(=S)[nH][nH]2)cc1 | inconclusive: 39.8 µM [inhibitor, partial curve, poor fit]
